Data reported in PubChem BioAssay AID588342 (National Center for Advancing Translational Sciences (NCATS), 2011).
“And” between values parts separate entries of the source, which are not always exact repeats. Equal values may be shown once. Hit rate of the full screen: of about 360,000 compounds, about 25,000 (6.9%) were called active. Inconclusive results, whose numbers are uncertain, are shown with a selection of clear calls. The call rests on the fitted dose curve; in most records, active means well fitted inhibition curve with a large enough effect; inconclusive means small, poorly fitted or top-dose-only effect; inactive means flat fitted curve, though single readings scatter. Where the call is inconclusive, the potency comes from a doubtful curve fit.

What follows are molecules tested against Luciferin 4-monooxygenase (Photinus pyralis) (UniProt P08659) (assay: qHTS profiling assay for firefly luciferase inhibitor/activator using purifed enzyme and Km concentrations of substrates (counterscreen for miR-21 project)). Conditions: purified FLuc, luminescence inhibition; series mostly up to 57.5 µM.
UniProt P08659, sequence (P08659 whole entry, looked up): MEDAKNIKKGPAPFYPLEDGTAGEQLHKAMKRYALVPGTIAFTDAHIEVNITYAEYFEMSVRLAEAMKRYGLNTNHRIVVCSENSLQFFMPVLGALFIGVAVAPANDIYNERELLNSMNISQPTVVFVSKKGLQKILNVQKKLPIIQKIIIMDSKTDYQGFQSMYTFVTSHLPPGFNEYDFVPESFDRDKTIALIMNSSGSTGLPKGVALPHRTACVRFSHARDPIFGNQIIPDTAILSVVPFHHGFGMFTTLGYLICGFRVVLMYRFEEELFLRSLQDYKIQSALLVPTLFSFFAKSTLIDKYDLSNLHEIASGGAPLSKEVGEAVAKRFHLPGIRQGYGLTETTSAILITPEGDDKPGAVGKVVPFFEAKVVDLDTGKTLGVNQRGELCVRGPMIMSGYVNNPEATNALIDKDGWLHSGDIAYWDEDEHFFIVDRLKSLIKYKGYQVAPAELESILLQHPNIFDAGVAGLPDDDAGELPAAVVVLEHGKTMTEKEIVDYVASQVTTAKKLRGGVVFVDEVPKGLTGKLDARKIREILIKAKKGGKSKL
Outline: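 Purified P. pyralis luciferase, 10 nM final, with Km-level 10 uM D-luciferin and 10 uM ATP in 50 mM Tris acetate pH 7.5, 10 mM Mg acetate, 0.01% Tween-20, 0.05% BSA; 6-point qHTS titration about 60 µM downward; luminescence read.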
Further: nearly all actives have a fitted effect of over 55% in size.
Potency means the concentration at half of the fitted maximal effect; tags describe the fitted curve by direction and shape.

Question: How did the Potency turn out when `Cn1cccc1C(=O)NNC(=O)COc1ccccc1Cl` was run?
Answer: The Potency was active: 15.1 µM.

Question: Which Potency does the source give for `CCN(CC)c1ccc2cc(-c3nc(-c4ccccc4F)no3)c(=O)oc2c1` here?
Answer: Its Potency is inconclusive: 5.36 µM [inhibitor, partial curve].

Question: `Cc1c(NC(=O)C(C)OC(=O)CC2Sc3ccccc3NC2=O)c(=O)n(-c2ccccc2)n1C` (centres undefined) was tested. Which Potency did it give?
Answer: The Potency was inconclusive: 23.9 µM [inhibitor, single point].

Question: Which Potency does the source give for `Cc1ccc(N(CC(=O)NCc2ccccc2)C(=O)CCC(=O)Nc2ccccn2)c(C)c1` here?
Answer: The Potency was “inactive”.

Question: With `CN=c1scc(-c2ccc([N+](=O)[O-])cc2)n1/N=C/c1ccco1` as the molecule, how does the Potency read?
Answer: Its Potency is inconclusive: 1.51 µM [inhibitor, full curve].

Question: How did the Potency turn out when `O=C1Nc2ccccc2Oc2cc(Oc3ccccc3)ccc21` was run?
Answer: The Potency was inconclusive: 16.9 µM [inhibitor, partial curve, poor fit].

Question: With `CNc1ncc(C(=O)c2ccccc2)s1` as the molecule, how does the Potency read?
Answer: The Potency was inconclusive: 16.9 µM [inhibitor, partial curve].

Question: Which Potency does the source give for `CSc1ccc(N2C(=O)NC3(CCCCC3)C2=O)cc1` here?
Answer: Its Potency is inconclusive: 6.75 µM [inhibitor, partial curve, poor fit].

Question: How did the Potency turn out when `CN(Cc1cccs1)C(=O)Cc1csc(-c2ccccc2)n1` was run?
Answer: Its Potency is inconclusive: 26.9 µM [inhibitor, single point].

Question: How did the Potency turn out when `CN(c1ccccc1)S(=O)(=O)c1ccc(NC(=O)c2nc(S(C)(=O)=O)ncc2Cl)cc1` was run?
Answer: Its Potency is inconclusive: 26.9 µM [inhibitor, partial curve, poor fit] and inconclusive: 23.9 µM [inhibitor, partial curve, poor fit].

Question: With `CCn1c(SCC(=O)c2ccc(O)c(O)c2)nnc1-c1ccccc1OC` as the molecule, how does the Potency read?
Answer: Its Potency is “inactive”.

Question: With `Cc1cc(C)c2nc(N3CCC(C(=O)NCCN4CCOCC4)CC3)sc2c1` as the molecule, how does the Potency read?
Answer: Its Potency is inconclusive: 37.9 µM [inhibitor, single point].

Question: With `C(=C\c1ccncc1)/c1ccncc1` as the molecule, how does the Potency read?
Answer: Its Potency is “inactive”.

Question: `CC(=O)Nc1ccc(N2N=C(C)C(N=Nc3ccccc3)C2=O)cc1` (centres undefined) was tested. Which Potency did it give?
Answer: The Potency was inconclusive: 1.9 µM [inhibitor, full curve].

Question: With `Cc1cc(C)n(-c2nnc(Nc3ccc(C)c(C)c3)c3ccccc23)n1` as the molecule, how does the Potency read?
Answer: Its Potency is inconclusive: 16.9 µM [inhibitor, partial curve].

Question: `O=C(Nc1ccc2c(c1)OCCO2)c1ccccc1` was tested. Which Potency did it give?
Answer: Its Potency is active: 3.38 µM.

Question: With `COC(=O)c1ccc2c(=O)n(CCCCCC(=O)O)c(=O)[nH]c2c1` as the molecule, how does the Potency read?
Answer: The Potency was inconclusive: 23.9 µM [inhibitor, single point].

Question: For `C=CCN(C(=O)c1cccc(N2C(=O)C3CC=CC(C)C3C2=O)c1)c1ccccc1` (centres undefined), which Potency is on record?
Answer: The Potency was “inactive”.

Question: How did the Potency turn out when `Cc1c(-c2ccccc2)oc2c(C(=O)OCC(=O)Nc3ccc(C(N)=O)cc3)cccc2c1=O` was run?
Answer: The Potency was “inactive”.
